The list shows a part of the results. At the low end of the ranking, values are background and their order means little.

This assay has as its target SIX1-Q177R homeodomain (UniProt Q15475). Briefly: universal protein binding microarray. The settings on record: Universal all-10-mer PBM (8x60K, AMADID 030236), 300 nM GST-tagged protein, Alexa Fluor 488 anti-GST; buffer, salt, pH and temperature not stated; high values mean tight binding; most listed sequences are background and not binding sites; double strand, one strand shown.
With AGAGCTAT, the binding signal is -0.00673 E-score.
As to AGCTAGCC, the binding signal is -0.198 E-score.
Turning to AAGATTAC, the binding signal is -0.0274 E-score.
As for GGCTGTTA, the binding signal was -0.144 E-score.
For AATTGACT, the binding signal is -0.0648 E-score.
Take ACTGACCG: the binding signal is -0.217 E-score.
Regarding AAGAATAG, the binding signal is -0.0491 E-score.
In the case of ACGAATCT, the binding signal was -0.0605 E-score.
Consider AAACACTC, for which the binding signal was found to be 0.321 E-score.
As for CGGCTAGC, the binding signal was -0.125 E-score.
In the case of AATCCGCA, the binding signal amounted to 0.0515 E-score.
GCCGTTAA: the binding signal is -0.16 E-score.
Turning to ACACATGT, the binding signal was determined as 0.128 E-score.
Consider AAAATTGG, for which the binding signal is -0.227 E-score.
With TCTGCGAA, the binding signal is -0.0447 E-score.
For the sequence CGAAGCCG, the binding signal was -0.17 E-score.
Regarding GCAGAGAA, the binding signal is -0.218 E-score.
With AACACAAA, the binding signal was 0.117 E-score.
As for AGGGGCCA, the binding signal is -0.0565 E-score.
As to AGTGGGTC, the binding signal was 0.102 E-score.
To ATGCAGAG belongs 0.0955 E-score.
TATCTGGA: the binding signal was -0.174 E-score.
As to GACGAACA, the binding signal worked out at 0.103 E-score.
For CATCGAGG, the binding signal was 0.0851 E-score.
Consider ACGCTCCG, for which the binding signal was -0.0822 E-score.
For the sequence AAGAGATA, the binding signal was -0.155 E-score.
Turning to CGCTGACG, the binding signal was -0.109 E-score.
As for ACTTGTAT, the binding signal came out at 0.0598 E-score.
With CGGCAACC the figure was -0.12 E-score; with CCTTCTCG, 0.0593 E-score.
Regarding GGCGAGAA, the binding signal is -0.221 E-score.
Take GAACATCC: the binding signal turned out to be 0.0607 E-score.
With AAGGCATT the figure was -0.0796 E-score.
To AATCGTCA belongs 0.0402 E-score; to GTTACTAA, -0.011 E-score.
TAGCATAA: the binding signal is 0.01 E-score.
CTTAATTC: the binding signal was -0.139 E-score.
Turning to GAATACCC, the binding signal came out at 0.159 E-score.
As for GCTGATCA, the binding signal is -0.167 E-score.
For the sequence GGAGACGA, the binding signal is -0.08 E-score.
On to CCGGAGAA, for which the binding signal is -0.0526 E-score.
In the case of AATCTCTG, the binding signal amounted to 0.0428 E-score.
In the case of AAACTTTG, the binding signal was -0.0062 E-score.
Consider CATCGTAC, for which the binding signal was -0.0343 E-score.
As for CGTTTTGC, the binding signal is -0.256 E-score.
On to CAAGTAGC, for which the binding signal is -0.211 E-score.
As for CGTGTGAG, the binding signal is 0.276 E-score.
Consider CGCCAAGA, for which the binding signal is -0.0727 E-score.
For GACTTTGA, the binding signal is -0.162 E-score.
CTTTACGC: the binding signal is -0.0824 E-score.
For the sequence ATGGGGCG, the binding signal came to 0.00015 E-score.
As to AGACTATG, the binding signal was -0.0941 E-score.
For CCCGCACC, the binding signal came to 0.197 E-score.
For AGTAGTAA, the binding signal is -0.0536 E-score.
To GATTATGA belongs -0.117 E-score; to CGACACCG, 0.491 E-score; to AAACCCAG, 0.219 E-score.
For CTTACTCC, the binding signal stood at 0.194 E-score.
Regarding CTAAGTTA, the binding signal was -0.164 E-score.
CCGTATAA: the binding signal is 0.0201 E-score.
Regarding CAACAGTG, the binding signal worked out at 0.106 E-score.
For the sequence TAGCACGA, the binding signal was found to be 0.0446 E-score.
With AATTTCGC the figure was -0.195 E-score; with CGTTGAGC, 0.025 E-score; with AATGCTAA, -0.17 E-score.
Regarding GAAGTACA, the binding signal was found to be 0.149 E-score.
AGCCCCAG: the binding signal was -0.065 E-score.
Turning to GATCAGTA, the binding signal was 0.0077 E-score.
Turning to CCTAAGCA, the binding signal is 0.0372 E-score.
To AGGGAACC belongs -0.0166 E-score; to AAAGATCA, -0.157 E-score.
With AGAAGGAA, the binding signal is -0.158 E-score.
AAATGGCC: the binding signal is -0.238 E-score.
Take CTAACTAG: the binding signal came out at 0.0599 E-score.
In the case of TATAGCGA, the binding signal was -0.156 E-score.
In the case of ACTGATGC, the binding signal was -0.0565 E-score.
For the sequence CGCGGCAG, the binding signal was -0.0453 E-score.
Turning to AACTTAAT, the binding signal was -0.121 E-score.
For AATGCTAG, the binding signal is -0.0888 E-score.
As for ATTACGTA, the binding signal is -0.148 E-score.
As for AATTATAA, the binding signal is -0.307 E-score.
In the case of CACCTCTG, the binding signal was found to be 0.287 E-score.
ACCGGCAT: the binding signal is -0.126 E-score.
AAGCCTTC: the binding signal is -0.106 E-score.
Take GCAACGTA: the binding signal is -0.299 E-score.
With CAAGATCC the figure was -0.00191 E-score; with AGGCTGGC, -0.154 E-score; with GTCGCGCA, -0.0878 E-score.
For ATTTATGA, the binding signal is -0.207 E-score.
To TGAAGAAA belongs -0.24 E-score; to CGCCTGTC, -0.203 E-score.
AAACTGTC: the binding signal was -0.194 E-score.
Consider GACCTGAC, for which the binding signal was 0.0563 E-score.
With GCTACTGA the figure was -0.0122 E-score.

(Values after PMC10668032.)
